About 4,000 (1%) of roughly 390,000 compounds were called active. Inconclusive results, whose numbers are uncertain, are shown with a selection of clear calls. Calls follow the shape of the dose curve; as a rule, active = well fitted inhibition curve with a large enough effect; inconclusive = small, poorly fitted or top-dose-only effect; inactive = no such curve, though single readings can be large or run the other way. Potencies beside an inconclusive call are fits to weak or partial responses and may not hold up.
The compounds below were run against Thioredoxin reductase 1, cytoplasmic (Rattus norvegicus) (UniProt O89049) (assay: qHTS Assay for Inhibitors of Mammalian Selenoprotein Thioredoxin Reductase 1 (TrxR1): qHTS). Settings: recombinant rTrxR1, NADPH fluorescence consumption, selenite substrate; series mostly up to 114 µM.
Sequence of UniProt O89049 (O89049 whole entry, looked up): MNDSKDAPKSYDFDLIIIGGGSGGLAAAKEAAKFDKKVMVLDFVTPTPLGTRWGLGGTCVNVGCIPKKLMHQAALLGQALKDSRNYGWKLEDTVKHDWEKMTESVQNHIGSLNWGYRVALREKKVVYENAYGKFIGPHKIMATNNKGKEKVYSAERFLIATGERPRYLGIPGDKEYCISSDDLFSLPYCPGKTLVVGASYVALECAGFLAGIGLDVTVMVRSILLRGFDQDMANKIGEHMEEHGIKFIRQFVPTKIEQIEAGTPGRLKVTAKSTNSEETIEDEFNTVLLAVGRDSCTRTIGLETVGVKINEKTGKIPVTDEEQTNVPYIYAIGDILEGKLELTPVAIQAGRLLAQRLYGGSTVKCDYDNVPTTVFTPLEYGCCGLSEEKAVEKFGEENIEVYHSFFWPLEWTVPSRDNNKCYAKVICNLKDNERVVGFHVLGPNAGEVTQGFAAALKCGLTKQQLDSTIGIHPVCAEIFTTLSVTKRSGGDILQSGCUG
Procedure, shortened: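 Rat TrxR1 (90 nM in the dispensed reagent) was pre-reduced with 400 uM NADPH for 5 min at room temperature, then incubated with compound for 15 min. After 400 uM selenite was added, NADPH fluorescence (Ex 340/Em 450 nm) was followed for 8 min.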
% is scaled to controls: 0 for no effect and ±100 for the full control effect; potency is read from the fitted curve at half-maximal effect; tags tell the direction and shape of the fitted curve.
Also: nearly all actives have a fitted effect of over 65% in size.

| Compound | Potency | activity change, negative = inhibition |
| --- | --- | --- |
| COCc1cc(CN2CCCC2)c(O)c2ncccc12 | inconclusive: 3.16 µM [inhibitor, partial curve, poor fit] | – |
| O=C(COC(=O)/C=C/c1ccccc1[N+](=O)[O-])Nc1ccc(OC(F)F)cc1 | – | inactive: 7.56% [at 0.457 µM] |
| N#Cc1cnn2c1nc(N1CCCCC1)c1ccccc12 | inconclusive: 79.4 µM [inhibitor, single point] | – |
| COc1cc(C2/C(=C(\O)c3ccc4c(c3)OCCO4)C(=O)C(=O)N2c2nnc(C)s2)cc(OC)c1OC (stereo not given) | inconclusive: 79.4 µM [inhibitor, single point] | – |
| Clc1nssc1=Nc1nncs1 | inactive | – |
| CC(C)S(=O)(=O)C1=NSC2=NC(=O)/C(=C\c3ccc(-c4cccc(C(=O)O)c4)o3)C(=N)N21 | inconclusive: 31.6 µM [inhibitor, full curve] | – |
| O=C1CC(SCc2nc3ccccc3[nH]2)C(=O)N1c1cccc(F)c1 (stereo not given) | inconclusive: 89.1 µM [inhibitor, partial curve, poor fit] | – |
| COc1ccc(CNC[C@H]2O[C@@H](n3cnc4c(N)ncnc43)[C@H](O)[C@@H]2O)cc1OC | inconclusive: 70.8 µM [inhibitor, partial curve] | – |
| COc1ccc2nc(Cl)c(C3CC(c4ccco4)=NN3C(=O)CCC(=O)O)cc2c1 (stereo not given) | inactive | – |
| S=c1[nH]nc(Nc2ccc(Cl)cc2)s1 | inactive | – |
| Cc1ccc(NC2=CC(c3ccccc3F)N(c3ccc(C)cc3)C2=O)cc1 (stereo not given) | inconclusive: 14.1 µM [inhibitor, full curve, poor fit] | – |
| Cc1ccc(NC(=S)N2CCCCCC2)c(C)c1 | inactive | – |
| COCCn1c(C)cc(/C=C2/SC(=O)N(C(C)C(=O)OC)C2=O)c1C (stereo not given) | inactive | – |
| O=C(CCSc1ccc(Br)cc1)c1ccc(O)cc1 | inconclusive: 10 µM [inhibitor, partial curve, poor fit] | – |
| CCC1=[N+](CC(=O)c2ccc(C)cc2)CCn2c(C)ccc21 | inconclusive: 11.2 µM [inhibitor, partial curve, poor fit] | – |
| COc1ccc(CC(=O)c2c(O)cc(O)cc2O)cc1OC | inconclusive: 1.26 µM [inhibitor, full curve, poor fit] | – |
| C/C(=N\Nc1nccnc1Cl)c1c(F)c(F)c(F)c(F)c1F | inconclusive: 89.1 µM [inhibitor, single point] | – |
| COc1ccc(C(=O)Nc2ccccc2N2CCCC2)cc1S(=O)(=O)N1CCOCC1 | inconclusive: 89.1 µM [inhibitor, single point] | – |
| N#CC(C#N)=Cc1ccc(NC(=O)c2ccc(Br)cc2)cc1 | active: 12.6 µM | – |
| CCN1CCN(c2ccc(NC(=O)c3cccc(N4CCCC4=O)c3)cc2)CC1 | inactive | – |
| CC(=O)c1c(O)cc(O)cc1O | active: 3.55 µM | – |
| CCOCCCn1c(SCC(=O)Nc2ccccc2OC)nc2c(oc3ccccc32)c1=O | inactive | – |
| CN(C)CCC(=O)c1ccc(Cl)cc1 | inconclusive: 0.316 µM [inhibitor, full curve, poor fit] | – |

| Compound | Potency | activity change, negative = inhibition |
| --- | --- | --- |
| CCOC(=O)C1CCCN(C(=O)c2ccc(Cl)c(S(=O)(=O)N3CCc4ccccc43)c2)C1 (stereo not given) | inconclusive: 89.1 µM [inhibitor, single point] | – |
| CCOc1ccc2nc(N(CCCN(C)C)C(=O)c3ccc4c(c3)CCCC4)sc2c1 | inactive | – |
| COc1cccc(C2=CC(=O)C[C@H](c3ccc(F)cc3)C2)c1 | inconclusive: 6.31 µM [inhibitor, single point] | – |
| O=C1CC(N2CCN(c3nc4ccccc4s3)CC2)C(=O)N1Cc1cccs1 (stereo not given) | inconclusive: 35.5 µM [inhibitor, single point] | – |
| COc1cccc(NS(=O)(=O)c2cc(-c3cnc(C4CC4)o3)ccc2C)c1 | inactive | – |
| Cc1ccc(NC(=O)CSc2nc(-c3ccco3)nc3cc(=O)[nH]n23)c(Cl)c1 | inconclusive: 79.4 µM [inhibitor, partial curve] | – |
| N#C/C(=C\c1ccc(O)c(O)c1)S(=O)(=O)c1ccccc1 | inconclusive: 14.1 µM [inhibitor, full curve, poor fit] | – |
| Cc1cc(NC(=S)NC(=O)CC(C)C)ccc1Br | inconclusive: 3.98 µM [inhibitor, partial curve, poor fit] | – |
| COCCCNC(=S)NNC(=S)Nc1cccc(Cl)c1 | inconclusive: 35.5 µM [inhibitor, partial curve, poor fit] | – |
| Cc1ccc(NC(=O)CN2C(=O)C(C)(C)c3cc(S(=O)(=O)N4CCCCC4)ccc32)c(Br)c1 | inactive | – |
| Cn1nc(C(=O)Nc2ccccc2C#N)c2c1-c1ccccc1SC2 | inactive | – |
| O=C(CC1N=C2c3ccccc3N=C(SCc3ccccc3Cl)N2C1=O)NC1CCCCC1 (stereo not given) | inactive | – |
| COc1ccc(Cl)cc1-n1c(CCC(=O)O)ccc1-c1ccc(C)cc1 | inconclusive: 89.1 µM [inhibitor, single point] | – |
| O=C(NC(=S)Nc1ccc(Cl)cc1)c1ccccc1 | inactive | – |
| O=C(Nc1cc(Cl)ccc1C(=O)O)c1ccc(CN2C(=O)c3ccccc3C2=O)cc1 | inconclusive: 89.1 µM [inhibitor, single point] | – |
| O=C(Cc1ccc(Cl)cc1)NO | inactive | – |
| COC(=O)c1c(NC(=S)Nc2ccc(CC(=O)O)cc2)sc(C)c1C | inconclusive: 11.2 µM [inhibitor, full curve, poor fit] | – |
| COc1ccc(-c2noc(-c3ccccc3C(=O)NCc3ccco3)n2)cc1OC | inconclusive: 79.4 µM [inhibitor, partial curve, poor fit] | – |
| Cc1c(CNCCCc2ccccc2)c(C(=O)O)c(C)n1Cc1ccc(Cl)cc1 | inactive | – |
| CC1(C)CC(NC(=O)c2ccc(-c3ccc([N+](=O)[O-])cc3)o2)CC(C)(C)N1 | inconclusive: 56.2 µM [inhibitor, partial curve, poor fit] | – |
| N#C/C(=N\Nc1ccc(Cl)cc1)C(N)=S | inconclusive: 31.6 µM [inhibitor, partial curve, poor fit] | – |
| O=C(O)CCN1C(=O)/C(=C\c2cccc(OCc3ccccc3)c2)SC1=S | inactive | – |
